Hit rate of the full screen: of about 45,000 compounds, about 200 (0.44%) were called active. Inconclusive results (about 7%) are left out. Calls follow the shape of the dose curve; as a rule, active = well fitted activation curve with a large enough effect; inconclusive = small, poorly fitted or top-dose-only effect; inactive = no such curve, though single readings can be large or run the other way. The list shows a part of the results.
assay: qHTS of TDP-43 Inhibitors: NCGC Sytravon Library Screen; conditions: yeast TDP-43 toxicity rescue, BacTiter-Glo growth, 24 h; series mostly up to 46.1 µM; growth rescue (activation): at the top concentration; also: 0% is about no effect; nearly all actives have a fitted effect of over 55% in size
Summary of the method: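 TDP-43-expressing yeast, pregrown in raffinose, seeded at OD600 0.02 in galactose medium with compound for 24 hr at 30 deg C. Growth read by BacTiter-Glo luminescence, so rescue of toxicity appears as activation.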

| SMILES | growth rescue (activation) |
| --- | --- |
| Cc1cc(NC(=O)CCC(=O)N(Cc2ccco2)C(C(=O)NC2CCCC2)c2ccccc2)no1 (stereo not drawn) | inactive: 11.8% |
| O=C(CN1C(=O)NC2(CCCC2)C1=O)NCCc1ccc(F)cc1 | inactive: 1.51% |
| CC1(C)CC(=O)C(N=Nc2ccc(Cl)cc2)=C(O)C1 | inactive: -7.77% |
| Cc1ccc(S(=O)(=O)Nc2cc(S(=O)(=O)N3CCCCC3)ccc2N2CCOCC2)cc1 | inactive: -2.96% |
| CCc1ccccc1NC(=O)C1CCCN(c2nnc(-n3c(C)ccc3C)s2)C1 (stereo not drawn) | inactive: 7.52% |
| COc1ccccc1NC(=O)c1ccc(NS(=O)(=O)c2ccc(F)c(F)c2F)cc1 | inactive: -15% |
| O=S(=O)(c1ccc(Cl)cc1)N1CCN(C(=S)Nc2ccc(F)c(Cl)c2)CC1 | inactive: 10.5% |
| O=C(COC(=O)c1ccc(F)c(S(=O)(=O)N2CCOCC2)c1)NCc1ccc(F)cc1 | inactive: 13.9% |
| CC(C)c1ccc(NC(=S)NN2CCOCC2)cc1 | inactive: 10.9% |
| CCCCN1CC(O)=C(c2nc(-c3ccc(Br)cc3)cs2)C1=N | inactive: 5.17% |
| CC(OC(=O)C1CC1C)C(=O)Nc1ccc(Cl)cn1 (stereo not drawn) | inactive: 3.21% |
| O=C(CSc1n[nH]c(=O)n1C1CC1)NCc1ccccc1 | inactive: -13.9% |
| CCn1c(SCC(=O)N/N=C/C(C)=C\c2ccco2)nnc1-c1ccccc1 | inactive: -2.22% |
| O=C(COC(=O)/C=C/c1ccco1)NCc1ccccc1Cl | inactive: 11.4% |
| CCN(CC)CCCN(Cc1cc2cc3c(cc2[nH]c1=O)OCCO3)C(=O)Nc1ccccc1 | inactive: -15.3% |
| COc1ccc(Cc2nnc(N/N=C/c3ccc(O)cc3O)[nH]c2=O)cc1OC | inactive: 16.3% |
| CN(Cc1ccccc1)C(=O)CN1C(=O)NC(C)(c2ccc(Cl)cc2)C1=O (stereo not drawn) | inactive: 5.75% |
| COC(=O)C1=C(C(C)=O)C(c2ccc(C(=O)OC)cc2)n2nnnc2N1 (stereo not drawn) | inactive: 10.5% |
| CC1(C)Cc2nc3[nH]c(=S)[nH]c(=O)c3cc2CO1 | inactive: 18.9% |
| Cc1cccc2cc(C3CC(c4ccco4)=NN3C(=O)CCC(=O)O)c(Cl)nc12 (stereo not drawn) | inactive: 6.37% |
| Nc1nc(SCC(=O)Nc2ccc([N+](=O)[O-])cc2Br)n[nH]1 | inactive: 22.2% |
| Cc1c(Br)c([N+](=O)[O-])nn1CC(=O)Nc1ccccn1 | inactive: 6.37% |
| O=C(NCCc1ccccc1)C1CCCN(S(=O)(=O)c2cccc3nsnc23)C1 (stereo not drawn) | inactive: 18.5% |
| O=C(O)C(Cc1ccccc1)N=C(NS(=O)(=O)c1ccccc1)c1ccccc1 (stereo not drawn) | inactive: 2.87% |
| COCC1CCN(C(=O)CCc2nnc(C3(c4ccc(Cl)cc4)CCC3)o2)CC1 | inactive: -12.8% |
| O=C1Nc2ccc(Br)cc2/C1=N\N=C\C1=C(N2CCOCC2)C(=C/c2ccccc2)/CC1 | inactive: 1.24% |
| CCOC(=O)C1=C(c2ccccc2)NC(=O)NC1c1ccc(OC)cc1OC (stereo not drawn) | inactive: 7.12% |
| Fc1cccc(-c2cncc(N3CCN(CCN4CCCC4)CC3)n2)c1 | inactive: 1.84% |
